# Test results published in PMC6212790.
# The list shows a part of the results. At the low end of the ranking, values are background and their order means little.
# Target: T1, GST-Rok (full length) (UniProt O34857)
# T1 sequence: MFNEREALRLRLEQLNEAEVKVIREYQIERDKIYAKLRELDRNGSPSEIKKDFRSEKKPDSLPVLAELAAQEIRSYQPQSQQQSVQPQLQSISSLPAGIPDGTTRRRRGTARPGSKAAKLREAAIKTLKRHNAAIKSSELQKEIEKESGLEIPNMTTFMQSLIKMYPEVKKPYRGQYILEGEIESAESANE
# Assay: protein binding microarray;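 also: rank score from −0.5 (least bound) to 0.5 (best bound)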
# Conditions: Rok is a gene silencer of Bacillus subtilis; high values mean tight binding; most listed sequences are background and not binding sites; double strand, one strand shown
row,Sequence,binding signal [E-score]
1,CCGTACAG,0.0449
2,ATGGGGTG,-0.221
3,AGTGCGAC,-0.0159
4,GCGGGACC,-0.299
5,CCGAGACA,-0.207
6,CACCAGCC,-0.217
7,CTTCCAAG,-0.126
8,GATCTGAC,-0.0144
9,TACCACGA,0.136
10,AGCGAAAC,-0.0336
11,CCTCTCGA,-0.153
12,ATATTTCA,0.213
13,CTAGACCC,-0.252
14,CAACGGAC,-0.0159
15,CGGGCCGA,-0.256
16,CACTTCCC,-0.26
17,ACATTTTC,0.136
18,AGTCTTAC,0.101
19,CGTGAAAA,-0.0114
20,CCCATACA,-0.0298
21,ACACTCCA,-0.0691
22,AGCAGACC,-0.166
23,CAACGATC,-0.0242
24,CATGGGCG,-0.239
25,ACATCCGC,-0.0419

row,Sequence,binding signal [E-score]
1,CTGATGCA,-0.106
2,CATTTTTC,0.057
3,CTATTTAA,0.0252
4,AGGTAGGC,-0.115
5,CCGGACGG,-0.229
6,ACGTAACA,0.165
7,GGCACGAC,-0.246
8,GACACTAA,0.205
9,CGTCGCCC,-0.331
10,CGCCAGCC,-0.294
11,GTGGTTCA,-0.0937
12,CGAAGTCA,0.00871
13,GAGAAGCA,-0.0779
14,GGAATTAC,0.26
15,AAGCGGGG,-0.236
16,TCGCCAGA,-0.118
17,CTACCATA,0.328
18,GGCCATAA,0.00475
19,CTAAGTTC,0.152
20,AATGCAGA,0.0743
21,CTCGTTCA,-0.214
22,CGGCCAGA,-0.116
23,GAGATGGA,-0.151
24,CAGTACTA,0.279
25,CGGCATAA,-0.0488

row,Sequence,binding signal [E-score]
1,ACCCGTGG,-0.187
2,AAAAGTCA,0.0581
3,CTTGCCAC,-0.0642
4,AGCAAAGC,-0.0901
5,AGACCCCC,-0.406
6,CGTGATGC,-0.115
7,AGTTCTAA,0.15
8,ACCTTCGT,-0.242
9,AGCCTCAA,0.00804
10,TAAACATA,0.28
11,ACCATGGA,0.131
12,AAGCACGA,0.0764
13,GCAGTTAA,0.125
14,CACTAATC,0.0536
15,AAGCGTGA,-0.24
16,CCCGTGGA,-0.26
17,CCGAAGTA,0.0367
18,CTTGCACA,0.117
19,CGTATGTA,0.268
20,AGGAAGTG,-0.139
21,GCTGACAC,-0.00646
22,GACTAAGA,0.189
23,AAGTGCCG,-0.16
24,CTATAGTA,0.365
25,ACAAACCT,0.0189

row,Sequence,binding signal [E-score]
1,ATCACACA,0.125
2,CTGGAGCC,-0.233
3,ACATCCCC,-0.26
4,GATCCGCC,-0.346
5,CACTTTCC,0.0273
6,GATTAAAC,0.0283
7,TTGGTAAA,0.217
8,AAGGCTAA,-0.17
9,CCAAGAAC,-0.19
10,CTGATTTC,0.0708
11,CACCCATA,0.0794
12,CTGTTTAA,-0.1
13,AGAGATAC,0.22
14,AGACCCTC,-0.376
15,ACAGTGTC,0.114
16,CAATGCTC,-0.205
17,ACCGTGGC,-0.203
18,AGGACACT,0.0286
19,GGACTGAA,-0.176
20,ATGCTCAC,-0.00157
21,ATGGGATC,-0.0663
22,GAATTACA,0.306
23,GTAACCCA,-0.0342
24,CGCACACA,-0.228
25,TACTCTCA,0.22

row,Sequence,binding signal [E-score]
1,CCGACGCC,-0.361
2,CTCGGCCA,-0.164
3,AATTCTTC,0.162
4,GGGAACCA,-0.324
5,ACACTAAC,0.157
6,GCGCAACA,0.00842
7,GGTTGCAA,-0.0509
8,ACTTTCAC,0.104
9,TGACGTAA,-0.0449
10,CGCGTGCC,-0.296
11,TCGTTGCA,0.102
12,AAGCTCAC,-0.199
13,CACGCTGC,-0.169
14,CCAAAGTC,0.0563
15,ACGCGGTC,-0.0839
16,AATAGAGC,0.0399
17,GTGGGAGA,-0.297
18,GAGTCTAC,-0.00523
19,CCACGTTA,0.184
20,GTGGGGCA,-0.348
21,ACACTGAG,-0.368
22,ACCCGAGA,-0.152
23,TACGAGAA,0.113
24,AGCGACTC,-0.0265
25,AATCGTGT,0.15

row,Sequence,binding signal [E-score]
1,ACAATGGT,0.0705
2,TGCAGTAA,0.194
3,AGTATACC,0.164
4,CCTTAACC,-0.0948
5,AAACATGC,0.0306
6,AATGTAGT,0.363
7,AGCTCGTG,-0.358
8,AGCATCGA,-0.0468
9,GCTGGTAA,0.0556
10,ATAGCCCC,-0.236
11,GTCGTTCA,0.00947
12,AATGCTGG,-0.152
13,GCCTCACC,-0.231
14,GGGGCACA,-0.17
15,AAGGGTAC,-0.0879
16,CCAGTGCG,-0.201
17,CCAACGGA,-0.0289
18,ACCTAGTA,0.292
19,ATCCACAT,0.206
20,ATATCGAG,0.213
21,AGCGGCAC,-0.184
22,GCAGCAGC,-0.158
23,CGAGTAGA,0.0915
24,GAGGTACC,0.0117
25,ATGGGCCG,-0.146

row,Sequence,binding signal [E-score]
1,CGTAATTC,0.2
2,GTGTCCTA,0.0862
3,GAGCGTGC,-0.232
4,AGAGCGTA,0.02
5,CGCAGCGA,-0.0147
6,ATTGGCAG,-0.147
7,AAAAACTA,0.417
8,ATTCTGGA,-0.00738
9,ACTCATAT,0.111
10,CTCATGAA,-0.0384
11,CTCGCATC,-0.101
12,AAGCCGAC,0.00914
13,AACATCTT,0.17
14,AGCCATTC,0.00502
15,GAGTGCAC,-0.194
16,CGATGCCC,-0.0481
17,AGCGACCT,0.0288
18,TGCTTCAA,-0.25
19,ATTCAAAA,0.118
20,GATAGGAC,-0.0277
21,ACTTAAAT,0.195
22,CGAACATC,0.0919
23,GTTCGATA,0.133
24,GATCGTCC,-0.233
25,GAGACTAC,0.0223

row,Sequence,binding signal [E-score]
1,GCTTAGAC,-0.0388
2,ACCCCAAG,-0.0462
3,AATAGTGC,0.202
4,ACATCGCG,0.165
5,AATGCGTA,0.157
6,CTCCAGAC,-0.129
7,TAACTGAA,0.23
8,CCTGGAAC,-0.0762
9,CCCTACCG,-0.258
10,CCTTAACA,-0.0787
11,AAGATCTA,0.272
12,AGATCAAG,0.107
13,GTATATGA,0.216
14,AACTGATA,0.299
15,GACTACTA,0.34
16,CCGACTCC,-0.406
17,ACCAAGGA,-0.0643
18,CGTATGCC,-0.11
19,GAAGTATA,0.169
20,AGCTGTTG,-0.0284
21,ATATTCTA,0.424
22,CTACCGGA,0.177
23,ATGGATGG,-0.15
24,ACGCTACG,0.103
25,AAAGTGTA,0.206

row,Sequence,binding signal [E-score]
1,CCGTCTTA,-0.144
2,ACCGTATC,0.166
3,GTGATTAA,0.0579
4,AGCCAGGA,-0.163
5,CTTTCACA,-0.00421
6,CTATCCTA,0.0781
7,AATTCCCG,0.0344
8,AGTCGGGG,-0.222
9,CAAACATG,0.124
10,AACCAGTC,-0.188
11,ACCTCAGC,0.0157
12,AGCATAGC,-0.148
13,ACACTGAT,0.0842
14,ACCTGGAG,-0.112
15,ATGCCCCC,-0.325
16,CATACTGA,-0.0112
17,GACCGTCA,-0.199
18,CTATGATC,0.184
19,AACGGATG,-0.0352
20,AAAGGTGA,-0.0487
21,CATAACGA,0.202
22,CAATTGTG,0.000958
23,ACAGTCCT,-0.0828
24,ACGGGACA,-0.213
25,CTGCTCCA,-0.195

row,Sequence,binding signal [E-score]
1,ATACGCTG,-0.0793
2,GAACTCAA,0.0343
3,AAGGAGTG,-0.314
4,CGTTGGAC,-0.283
5,ACGCCCCT,-0.344
6,GACCAATC,-0.0645
7,CGGCGCCA,-0.298
8,CTCGGTCC,-0.308
9,ACGTTATG,-0.0734
10,GTGAAAAA,-0.0619
11,TTACTCAA,0.0566
12,CTTGAATC,-0.083
13,GACACTCC,-0.209
14,GGATGACC,-0.0389
15,ACCGCACG,-0.077
16,TCGAGTCA,-0.124
17,ACACCCCC,-0.257
18,CTCGAGAA,0.0455
19,GTCCTGAA,-0.0102
20,AACTGGAG,-0.0563
21,ACATTTGG,0.0586
22,CCACCCAG,-0.0762
23,GATGAGCA,0.00806
24,GGTTATAC,0.134
25,ATTTTCCA,0.16

row,Sequence,binding signal [E-score]
1,AAACGATG,0.0574
2,GTTGATTA,0.134
3,TAAATGTA,0.411
4,ACAGGGTG,-0.205
5,AGTAGCTC,0.0983
6,ACAATGCC,-0.051
7,CGCCGCAA,-0.286
8,GAGAAAAA,0.0593
9,CATAAATG,0.107
10,GCACAGTA,-0.0912
11,ACTCCTCT,-0.166
12,GATCGTGA,-0.118
13,AAATATAT,0.429
14,CTAAGGGA,-0.154
15,CATAGGTA,0.219
16,GGCTAAGA,0.000408
17,ACTGTCCT,0.0227
18,AAGCGCGC,-0.212
19,AATTAATA,0.256
20,CATCAGAC,-0.105
21,ATGCCACG,-0.206
22,AAACATTT,0.0971
23,AAACCAAA,-0.0651
24,CAAGTTTC,0.168
25,CGACATAC,-0.0148

row,Sequence,binding signal [E-score]
1,GGGATACC,-0.0354
2,GCGGCGCC,-0.371
3,ATGCGGTC,-0.111
4,CGATAACG,0.109
5,AGAATGGG,0.00345
6,CGACTATA,0.151
7,CGCTCGTA,0.0563
8,ACTTCTTC,-0.0926
9,AGAATGTC,-0.0645
10,AATACTTG,0.0926
11,CATCAAGC,-0.0317
12,AGAAATAG,0.286
13,ACAAAAGG,-0.131
14,GATCAGAA,0.11
15,CCGGCACG,-0.0421
16,ACAACCGT,-0.00907
17,CAGCGTGG,-0.173
18,CTCCTACA,0.0462
19,CCCGTAGC,-0.0597
20,ACGTTAAG,-0.0138
21,AACTGTTA,0.251
22,AGCCCACA,-0.257
23,CGTATACG,0.184
24,CACGGTGA,-0.0261
25,AACTGAAT,0.0203

row,Sequence,binding signal [E-score]
1,AAGGACGC,-0.218
2,CGACCGTC,-0.219
3,TCTTCGCA,0.0798
4,GACTCTAC,-0.0199
5,GCCATGGA,-0.00407
6,CCCTACGA,-0.238
7,CCAATTGA,-0.16
8,AAAAGTGA,-0.0863
9,AGACCGGA,-0.0742
10,ACATTAGG,-0.00784
11,GGATCAAA,-0.145
12,GATGGAGC,-0.104
13,AGCCGCCA,-0.269
14,AATCTAGA,0.349
15,TTACGAAA,0.279
16,ATTTTCGG,0.213
17,GTAGGGAC,-0.124
18,GTAAGTAA,0.207
19,GTCTGTAA,0.146
20,ACCGCTTC,-0.0999
21,AACCTGGC,-0.0762
22,GATTGCTA,0.233
23,CAATTATG,0.175
24,CTATGTCC,-0.0473
25,AGGACCTC,-0.158

row,Sequence,binding signal [E-score]
1,ATTGATAA,0.236
2,AACCGCCA,-0.244
3,AAGTCGTG,0.127
4,CTCAAGGA,-0.255
5,CACTCGAC,-0.155
6,ATAGCTTC,0.0542
7,CTTCCATC,-0.273
8,GAAGAAAC,0.056
9,GCGGAGCA,-0.168
10,GAAGGATA,0.0273
11,CCCCCCAG,-0.384
12,GGGTTGAA,-0.293
13,GCCTGACA,-0.242
14,CCTCGTCC,-0.342
15,GTAATCCA,0.00713
16,CTATCGGC,0.0463
17,GACCCTCA,-0.349
18,GAGTCAAC,-0.133
19,ACATATTG,0.148
